Assay results: the supplement of paper PMC12217912
Some of the results follow. Sequences were assembled here from the parent chain. Inactive controls read about 0.05.

B1: TEV protease; numbered along this chain (parent)
chain: MGESLFKGPRDYNPISSSICHLTNESDGHTTSLYGIGFGPFIITNKHLFRRNNGTLVVQSLHGVFKVKDTTTLQQHLVDGRDMIIIRMPKDFPPFPQKLKFREPQREERICLVTTNFQTKSMSSMVSDTSCTFPSGDGIFWKHWIQTKDGQCGSPLVSTRDGFIVGIHSASNFTNTNNYFTSVPKNFMELLTNQEAQQWVSGWRLNADSVLWGGHKVFMVKPEEPFQPVKEATQL

Variants of: B1
Assay: raw area under fraction-flipped curve 0-4 h after induction (AUC4h, not background-subtracted), DNA-recorder readout of cleavage of the substrate (dimensionless); higher = more cleavage of the substrate by the protease variant
Details: temperature: 34 °C; time window: 0-4 h after rhamnose induction
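Also: Bxb1 expression induced with 0.2% (w/v) L-rhamnose at OD600 near 0.5, cultures sampled hourly, flipped fraction per protease–substrate barcode pair counted by paired-end Illumina sequencing.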

Variant | area with substrate ENLDFQS | area with substrate ENLFFQS | area with substrate ENLIFQS | area with substrate ENLLFQS | area with substrate ENLNFQS | area with substrate ENLPFQS | area with substrate ENLRFQS | area with substrate ENLSFQS | area with substrate ENLEFQS | area with substrate ENLHFQS | area with substrate ENLQFQS | area with substrate ENLVFQS | area with substrate ENLMFQS | area with substrate ENLKFQS | area with substrate ENLTFQS | area with substrate ENLWFQS | area with substrate ENLGFQS
G162I | 0.0575 | 0.0852 | 0.054 | 0.0583 | 0.0587 | 0.0579 | 0.0795 | 0.0472 | – | – | – | – | – | – | – | – | –
S171Q | 0.0605 | 0.0717 | 0.0703 | 0.0597 | 0.0703 | 0.0653 | – | 0.0618 | 0.0429 | 0.0899 | 0.0611 | 0.0623 | – | – | – | – | –
K185H | 0.0762 | 0.0759 | 0.0921 | 0.101 | – | – | – | – | 0.0627 | 0.102 | – | – | 0.0759 | – | – | – | –
L190A | 0.059 | 0.0811 | – | – | 0.0707 | 0.0675 | 0.0691 | 0.0424 | 0.0929 | – | 0.0536 | – | – | 0.0819 | 0.0783 | 0.0321 | –
L191E | 0.0586 | 0.0667 | – | – | 0.069 | 0.0371 | 0.0571 | 0.0471 | 0.0482 | 0.0683 | 0.052 | 0.0648 | 0.0583 | – | – | – | –
L191S | 0.0234 | 0.0556 | – | – | – | – | 0.0855 | 0.0521 | – | – | – | – | – | 0.0669 | – | – | –
Q194Y | 0.0529 | 0.0796 | – | – | 0.0645 | 0.0443 | 0.0862 | 0.0656 | 0.0891 | 0.0617 | 0.0533 | – | – | – | – | – | –
Q197T | 0.0681 | 0.105 | 0.0634 | 0.0668 | – | 0.0546 | – | – | – | – | – | – | – | – | – | – | –
G202P | 0.0616 | 0.0619 | – | – | 0.0528 | – | 0.0567 | – | 0.0723 | 0.0601 | 0.0687 | – | – | 0.0671 | 0.055 | 0.0544 | –
W203I | 0.0345 | 0.0585 | 0.0609 | 0.0631 | 0.0572 | – | – | 0.0653 | 0.0482 | 0.0671 | – | – | – | 0.0593 | – | – | –
L205T | 0.0574 | – | – | – | 0.0749 | – | – | – | – | – | – | – | 0.044 | – | – | – | –
A207H | 0.0507 | – | 0.0913 | 0.0613 | 0.0501 | 0.0664 | – | 0.0702 | – | 0.0841 | 0.0622 | – | – | – | – | 0.0632 | 0.0799
V210H | 0.0758 | 0.0633 | 0.0688 | – | 0.0351 | 0.0699 | 0.0506 | 0.0702 | 0.0674 | 0.062 | – | 0.0675 | – | – | – | 0.0583 | 0.0675
V210R | 0.0693 | 0.0648 | – | 0.0627 | 0.0671 | 0.0411 | 0.0596 | – | – | 0.0439 | 0.069 | 0.0571 | 0.0672 | 0.0617 | – | 0.0506 | 0.0653
H215P | 0.0618 | 0.0597 | 0.058 | 0.0574 | 0.0577 | – | – | 0.0628 | 0.0554 | 0.0614 | 0.0668 | 0.0816 | 0.064 | 0.0661 | – | – | –
V217I | 0.066 | 0.114 | – | – | 0.0648 | 0.0793 | 0.0735 | – | – | 0.0642 | 0.0864 | – | 0.0692 | 0.0794 | 0.0975 | – | 0.0723
V217S | 0.079 | 0.0802 | 0.0511 | – | 0.0592 | 0.0448 | 0.0615 | 0.06 | 0.074 | 0.0593 | 0.0604 | – | 0.0633 | – | – | 0.0596 | –
V217T | 0.0845 | 0.119 | 0.0602 | – | – | 0.0593 | 0.0507 | – | – | 0.077 | 0.0854 | – | – | 0.0642 | – | 0.0538 | –
F218M | 0.0685 | – | – | 0.06 | 0.0697 | – | – | 0.0596 | – | 0.0546 | – | – | – | 0.0507 | – | 0.0704 | –

Variant | area with substrate ENLDFQS | area with substrate ENLFFQS | area with substrate ENLIFQS | area with substrate ENLLFQS | area with substrate ENLNFQS | area with substrate ENLPFQS | area with substrate ENLRFQS | area with substrate ENLSFQS | area with substrate ENLEFQS | area with substrate ENLHFQS | area with substrate ENLQFQS | area with substrate ENLVFQS | area with substrate ENLMFQS | area with substrate ENLKFQS | area with substrate ENLTFQS | area with substrate ENLWFQS | area with substrate ENLGFQS
M219N | 0.0675 | 0.0636 | 0.0523 | 0.0503 | – | – | – | – | – | – | 0.0587 | 0.0895 | – | – | – | 0.0683 | –
K221G | 0.0683 | 0.0785 | – | 0.0543 | 0.0643 | – | – | – | 0.11 | 0.0661 | – | – | – | 0.0777 | – | 0.0583 | –
K221W | 0.0531 | 0.059 | 0.0615 | – | 0.0617 | – | 0.0784 | 0.0529 | – | – | 0.064 | 0.0839 | – | 0.0871 | – | – | 0.075
E224G | 0.0599 | – | 0.0925 | 0.0758 | 0.0684 | 0.0483 | 0.0746 | 0.0617 | 0.0578 | 0.0618 | – | – | – | – | – | 0.0548 | 0.0685
P225E | 0.0565 | 0.106 | – | 0.0425 | – | 0.0638 | – | 0.0742 | – | 0.0735 | – | – | 0.0766 | – | – | – | –
P225N | 0.0542 | 0.0873 | 0.0714 | 0.0849 | 0.0492 | 0.0597 | 0.0756 | 0.006 | 0.0544 | 0.072 | 0.0854 | 0.0897 | 0.0681 | 0.0732 | – | 0.0708 | 0.0657
P228L | 0.0425 | 0.0544 | 0.0499 | – | 0.0565 | – | 0.0805 | 0.0625 | 0.0562 | – | 0.0465 | – | – | 0.0678 | – | – | –
K230Y | 0.0772 | 0.102 | – | – | 0.0635 | 0.0593 | – | 0.0626 | – | 0.0761 | 0.0589 | 0.0967 | 0.0811 | 0.0758 | – | – | –
Q234A | 0.0578 | 0.0935 | – | – | – | 0.0764 | – | – | – | – | – | – | 0.0746 | 0.112 | – | – | –
K7L | – | 0.0801 | 0.0695 | – | 0.0647 | 0.0617 | – | 0.0607 | 0.0695 | 0.0559 | – | 0.0678 | – | 0.0709 | – | – | –
G37Y | – | 0.0583 | – | – | – | 0.0462 | 0.066 | 0.0548 | 0.0458 | 0.0442 | 0.0514 | – | – | – | 0.0649 | 0.086 | 0.063
D69K | – | – | – | – | 0.0658 | 0.0867 | 0.0667 | 0.0689 | 0.0684 | – | 0.0792 | – | – | 0.0734 | – | – | –
T70K | – | – | – | – | – | 0.0739 | – | 0.0682 | 0.05 | – | 0.0684 | – | – | 0.0516 | – | – | –
Q75V | – | 0.0701 | 0.115 | 0.0641 | – | 0.0635 | – | – | 0.0542 | 0.0673 | 0.0736 | – | – | 0.0565 | 0.084 | – | –
H76V | – | – | – | – | – | 0.0533 | – | 0.0627 | 0.0689 | – | – | – | – | 0.0787 | 0.0731 | – | –
K100C | – | 0.0875 | 0.0844 | 0.076 | 0.0636 | 0.0581 | – | 0.0695 | 0.0608 | 0.0661 | 0.0706 | – | 0.0601 | 0.0788 | 0.0676 | – | –
F101R | – | 0.0528 | 0.0493 | – | 0.0632 | – | 0.0715 | – | 0.0488 | – | 0.0406 | – | – | 0.063 | – | 0.0513 | –
F117A | – | 0.0802 | 0.108 | – | 0.0927 | – | – | 0.066 | 0.11 | 0.0693 | – | – | – | 0.0835 | – | 0.0727 | –
